Data from the supplement of paper PMC3334620.
Over roughly 33,000 sequences, “E-score (-0.5 to 0.5)” has its median near -0.01; the highest 2% begin near 0.26. This is one part of the list.

What follows are sequences tested against Ste12 (UniProt P13574) (assay: PBM E-score (8-mer binding enrichment) (E-score (-0.5 to 0.5)); higher = stronger / more preferred TF binding; most listed sequences are background and not binding sites). Conditions: protein concentration: 200 nM; construct: GST-DNA-binding domain.
Summary of the method: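 Each ungapped eight-base word and its reverse complement, pooled, received an E-score from the Universal PBM Analysis Suite. Underlying scans, normalised with masliner, recorded fluorescent anti-GST bound to GST-tagged yeast transcription factors. These were applied at about 100-200 nM to universal all-10-mer Agilent arrays double-stranded by primer extension.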

Going from AAACGCCG to AGTCTAAC, the “PBM E-score” value falls from 0.192 to -0.114.

Compared with GCAACACA, AACCATGT is higher in “PBM E-score” value: -0.044 for the first, 0.0364 for the second.

Going from ACCGAATG to GTATCGAC, the “PBM E-score” value falls from 0.0423 to -0.00788.

Compared with ATTCACCG, CATTTAAC is higher in “PBM E-score” value: 0.207 for the first, 0.212 for the second.

First: CTCGCCAC
Second: CCCAAGGA
The “PBM E-score” value of the first is higher: -0.0284 for the first, -0.173 for the second.

First: AACAATAA
Second: ATCACCAT
The “PBM E-score” value of the first is higher: 0.301 for the first, -0.00836 for the second.

First: CAACGGGG
Second: CCGTCAAG
The “PBM E-score” value of the first is higher: 0.0122 for the first, -0.0586 for the second.

Compared with ACATCAGA, AGTGATTC is lower in “PBM E-score” value: 0.109 for the first, -0.0998 for the second.

First: ACGGTAAT
Second: ATCCATAA
The “PBM E-score” value of the first is lower: -0.153 for the first, 0.167 for the second.

Going from AAAGGCCC to AGCATTCA, the “PBM E-score” value rises from -0.109 to -0.0697.

Compared with GATGCATC, ACTAATTC is higher in “PBM E-score” value: -0.022 for the first, 0.0758 for the second.

First: CAAGGTGC
Second: GTAGAGTA
The “PBM E-score” value of the first is lower: -0.296 for the first, -0.0214 for the second.

Compared with GGTCACAA, GACTAATC is higher in “PBM E-score” value: -0.022 for the first, -0.0033 for the second.

First: GTCCCAAC
Second: ATCTTGGG
The “PBM E-score” value of the first is higher: 0.0409 for the first, -0.16 for the second.

First: AACCTGGC
Second: CGAGATGA
The “PBM E-score” value of the first is lower: -0.0729 for the first, -0.00756 for the second.

Compared with CCCCTGGC, CAGTGAAG is higher in “PBM E-score” value: -0.159 for the first, 0.0774 for the second.

Going from GGGTACAA to CGGCAAAG, the “PBM E-score” value rises from 0.0188 to 0.116.

Going from ACGTTTCA to CGACCGGC, the “PBM E-score” value falls from 0.48 to 0.0316.

Going from AGCATTGC to GCGAACTA, the “PBM E-score” value rises from -0.118 to 0.105.

Compared with ACCATCAC, AACTCTGT is higher in “PBM E-score” value: -0.0898 for the first, 0.0572 for the second.

First: CGCCTACC
Second: AAAATCCA
The “PBM E-score” value of the first is lower: -0.204 for the first, 0.153 for the second.

Going from GACTACCC to AATAGGCG, the “PBM E-score” value rises from -0.0874 to 0.12.

First: AACGGAGG
Second: AGACGTGC
The “PBM E-score” value of the first is lower: -0.218 for the first, -0.0221 for the second.

Going from GCGTAAGA to AGCCTGTA, the “PBM E-score” value falls from 0.0466 to -0.109.

Compared with AATCTGTA, ATCACATC is higher in “PBM E-score” value: 0.061 for the first, 0.158 for the second.

First: ACTTGATC
Second: GGACGTTA
The “PBM E-score” value of the first is higher: 0.0858 for the first, -0.0711 for the second.

First: AGCATAAG
Second: GTCCTACA
The “PBM E-score” value of the first is higher: 0.0235 for the first, -0.0419 for the second.

First: GCGTTCCC
Second: AGACTGCT
The “PBM E-score” value of the first is lower: -0.0494 for the first, 0.0365 for the second.

Compared with AGATCTGC, AACTAGCA is higher in “PBM E-score” value: -0.0463 for the first, 0.0602 for the second.

Compared with GTTGGTCA, ACATCCTG is lower in “PBM E-score” value: 0.121 for the first, 0.102 for the second.

First: AGTAATCG
Second: AAACATCT
The “PBM E-score” value of the first is lower: 0.0283 for the first, 0.177 for the second.

Going from GGTATCCA to ATATCCCG, the “PBM E-score” value falls from 0.0467 to -0.0149.

Going from AGGCGCAA to TTCCGCAA, the “PBM E-score” value rises from 0.0718 to 0.116.

First: ATCCGAAG
Second: CGCATTTA
The “PBM E-score” value of the first is lower: 0.0493 for the first, 0.119 for the second.

Going from CCCAGAGG to ATCCCACC, the “PBM E-score” value rises from -0.244 to 0.158.

Going from CCCGGACG to ATCACCAA, the “PBM E-score” value rises from -0.105 to 0.0616.

Compared with AGACCGCC, AATTTACT is higher in “PBM E-score” value: -0.0285 for the first, 0.217 for the second.

First: TAGGGTCA
Second: ACATCGAC
The “PBM E-score” value of the first is higher: -0.0331 for the first, -0.0873 for the second.

Compared with AGCAGTGC, TTGCGCAA is higher in “PBM E-score” value: -0.289 for the first, -0.151 for the second.

Going from TAGGCGGA to CGGTGGGC, the “PBM E-score” value falls from -0.0248 to -0.176.

Going from CAACCTTG to AGAACGTG, the “PBM E-score” value falls from 0.0802 to 0.0165.

Compared with AATAACAT, CTTATTGC is lower in “PBM E-score” value: 0.12 for the first, -0.0793 for the second.

First: AAGTATGT
Second: CAGGCGCA
The “PBM E-score” value of the first is higher: 0.0849 for the first, -0.132 for the second.

Going from AACTTCGA to CTCAGATA, the “PBM E-score” value falls from 0.179 to 0.0316.

Going from CTTCCGCC to ATCATTGA, the “PBM E-score” value rises from -0.0703 to 0.0805.

Going from ATGAGAGC to GTATGACA, the “PBM E-score” value rises from -0.126 to 0.144.

Going from GAACTTAA to AGGCACGC, the “PBM E-score” value falls from 0.115 to -0.189.

First: TTAACGAA
Second: GTTTGCTA
The “PBM E-score” value of the first is higher: 0.262 for the first, 0.0839 for the second.

First: CCACTATC
Second: GTAACATA
The “PBM E-score” value of the first is lower: -0.0847 for the first, 0.218 for the second.

Compared with GTACCCAC, CTTGTAGA is lower in “PBM E-score” value: -0.0979 for the first, -0.243 for the second.

Going from CGAACTAG to CAGTTTCA, the “PBM E-score” value rises from 0.053 to 0.374.

First: CGTCTATC
Second: GAACCCTC
The “PBM E-score” value of the first is higher: 0.0468 for the first, -0.14 for the second.

First: GGTTCCGA
Second: CATAGTAC
The “PBM E-score” value of the first is higher: 0.111 for the first, -0.0117 for the second.

Going from CTGTGCAA to CCGTGACC, the “PBM E-score” value falls from -0.101 to -0.19.

First: CAGTACTC
Second: CACACATA
The “PBM E-score” value of the first is lower: -0.16 for the first, 0.0505 for the second.

Going from AACGGTGT to GCAGTGAA, the “PBM E-score” value rises from 0.0499 to 0.25.

Going from ATTCCTTA to ACCATTAA, the “PBM E-score” value rises from 0.0366 to 0.221.

Compared with AACCCAGA, AACTAATG is higher in “PBM E-score” value: -0.108 for the first, 0.0859 for the second.

First: CCTGAGCG
Second: TACGTCAA
The “PBM E-score” value of the first is lower: -0.152 for the first, 0.0103 for the second.

First: TATTCTCA
Second: AAATACGG
The “PBM E-score” value of the first is higher: 0.122 for the first, 0.0587 for the second.

First: CAATGCCG
Second: GATTAGCC
The “PBM E-score” value of the first is lower: -0.0769 for the first, -0.057 for the second.

Going from ATACCAAT to AATTTGCC, the “PBM E-score” value rises from -0.146 to 0.0665.

Going from CTTCGACC to AACTTATA, the “PBM E-score” value rises from -0.107 to 0.0627.

Compared with ATCAGCGG, CAGCACGG is lower in “PBM E-score” value: 0.0345 for the first, -0.0896 for the second.

First: ACGAGTAG
Second: CACATGAA
The “PBM E-score” value of the first is lower: 0.0683 for the first, 0.108 for the second.

Going from ATAAGAAC to TCTTCGAA, the “PBM E-score” value falls from 0.171 to 0.023.

Compared with CTAAGAAC, CCACCGTA is lower in “PBM E-score” value: 0.189 for the first, -0.0231 for the second.

First: GAAGGCTC
Second: CTGACGCA
The “PBM E-score” value of the first is lower: -0.209 for the first, -0.2 for the second.

First: AGGCTCTC
Second: CCCTAGTC
The “PBM E-score” value of the first is higher: -0.13 for the first, -0.238 for the second.

Compared with CTTGGTTC, ACGTCGTC is lower in “PBM E-score” value: 0.181 for the first, -0.064 for the second.

Compared with CACAATAC, AGCCAAAA is lower in “PBM E-score” value: 0.0976 for the first, 0.0698 for the second.

Compared with AGTTCGTA, TGCGTCCA is lower in “PBM E-score” value: -0.0725 for the first, -0.147 for the second.

First: ACCTTGGC
Second: CAAACATG
The “PBM E-score” value of the first is lower: -0.0364 for the first, 0.179 for the second.

Compared with ACATATCA, CTGGAAAG is lower in “PBM E-score” value: 0.257 for the first, -0.141 for the second.

Going from CGAGTGGC to CTATGGAA, the “PBM E-score” value rises from -0.0423 to 0.107.

Going from CTTCCGCA to CGTTGTGA, the “PBM E-score” value falls from -0.00457 to -0.0207.

First: GTAGGAAC
Second: GAATACCA
The “PBM E-score” value of the first is higher: 0.066 for the first, 0.05 for the second.

Going from AAAGGGGC to AAGCCGGG, the “PBM E-score” value falls from -0.05 to -0.0595.

Going from TCCCTACA to CTCAGGGC, the “PBM E-score” value falls from 0.0325 to -0.157.

Going from CTGCCTCC to TTAACCAA, the “PBM E-score” value rises from -0.0717 to 0.154.

First: GAAACGCA
Second: CCTCTCAC
The “PBM E-score” value of the first is higher: 0.323 for the first, -0.161 for the second.

Going from CACAGAAA to CCCAAGTC, the “PBM E-score” value falls from 0.0319 to -0.0209.

Compared with GACTATGA, CGGCATAA is higher in “PBM E-score” value: -0.118 for the first, -0.0029 for the second.

Compared with ACCCTAAG, CATTCATA is higher in “PBM E-score” value: 0.0578 for the first, 0.296 for the second.

Compared with AACGGCAA, GCGACCAA is lower in “PBM E-score” value: 0.109 for the first, 0.0799 for the second.

Going from CGCGTAAA to TCTCTTCA, the “PBM E-score” value rises from -0.0365 to 0.0588.
